# Source: PubChem BioAssay AID504332 (National Center for Advancing Translational Sciences (NCATS), 2011)
# “And” between values parts separate entries of the source, which are not always exact repeats. Equal values may be shown once. Among all 350,000 compounds or so, about 31,000 (8.9%) were called active. Inconclusive results, whose numbers are uncertain, are shown with a selection of clear calls. Calls follow the shape of the dose curve; as a rule, active = well fitted inhibition curve with a large enough effect; inconclusive = small, poorly fitted or top-dose-only effect; inactive = no such curve, though single readings can be large or run the other way. A potency beside an inconclusive call is a rough fit, not a confirmed value. Some structures have more than one record in an assay (separate samples or runs), and their calls can disagree.
# Target: Histone-lysine N-methyltransferase EHMT2 (Homo sapiens) (UniProt Q96KQ7)
# Test: qHTS Assay for Inhibitors of Histone Lysine Methyltransferase G9a; also: nearly all actives have a fitted effect of over 75% in size
# Details: G9a H3K9 monomethylation, AlphaScreen, 2 h; activity, negative = inhibition: at 59 µM (top of the series) unless noted
# Outline: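 Quantitative HTS format: methyltransferase activity on a biotin-tagged H3K9 peptide is measured by AlphaScreen, using a rabbit anti-monomethyl-H3K9 antibody with streptavidin donor and anti-IgG acceptor beads. Final levels are 20 nM enzyme, 500 nM peptide, 20 uM SAM; 2 h RT.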
# % is scaled to controls: 0 for no effect and ±100 for the full control effect; potency is read from the fitted curve at half-maximal effect; tags tell the direction and shape of the fitted curve.
# UniProt Q96KQ7, sequence (Q96KQ7 whole entry, looked up): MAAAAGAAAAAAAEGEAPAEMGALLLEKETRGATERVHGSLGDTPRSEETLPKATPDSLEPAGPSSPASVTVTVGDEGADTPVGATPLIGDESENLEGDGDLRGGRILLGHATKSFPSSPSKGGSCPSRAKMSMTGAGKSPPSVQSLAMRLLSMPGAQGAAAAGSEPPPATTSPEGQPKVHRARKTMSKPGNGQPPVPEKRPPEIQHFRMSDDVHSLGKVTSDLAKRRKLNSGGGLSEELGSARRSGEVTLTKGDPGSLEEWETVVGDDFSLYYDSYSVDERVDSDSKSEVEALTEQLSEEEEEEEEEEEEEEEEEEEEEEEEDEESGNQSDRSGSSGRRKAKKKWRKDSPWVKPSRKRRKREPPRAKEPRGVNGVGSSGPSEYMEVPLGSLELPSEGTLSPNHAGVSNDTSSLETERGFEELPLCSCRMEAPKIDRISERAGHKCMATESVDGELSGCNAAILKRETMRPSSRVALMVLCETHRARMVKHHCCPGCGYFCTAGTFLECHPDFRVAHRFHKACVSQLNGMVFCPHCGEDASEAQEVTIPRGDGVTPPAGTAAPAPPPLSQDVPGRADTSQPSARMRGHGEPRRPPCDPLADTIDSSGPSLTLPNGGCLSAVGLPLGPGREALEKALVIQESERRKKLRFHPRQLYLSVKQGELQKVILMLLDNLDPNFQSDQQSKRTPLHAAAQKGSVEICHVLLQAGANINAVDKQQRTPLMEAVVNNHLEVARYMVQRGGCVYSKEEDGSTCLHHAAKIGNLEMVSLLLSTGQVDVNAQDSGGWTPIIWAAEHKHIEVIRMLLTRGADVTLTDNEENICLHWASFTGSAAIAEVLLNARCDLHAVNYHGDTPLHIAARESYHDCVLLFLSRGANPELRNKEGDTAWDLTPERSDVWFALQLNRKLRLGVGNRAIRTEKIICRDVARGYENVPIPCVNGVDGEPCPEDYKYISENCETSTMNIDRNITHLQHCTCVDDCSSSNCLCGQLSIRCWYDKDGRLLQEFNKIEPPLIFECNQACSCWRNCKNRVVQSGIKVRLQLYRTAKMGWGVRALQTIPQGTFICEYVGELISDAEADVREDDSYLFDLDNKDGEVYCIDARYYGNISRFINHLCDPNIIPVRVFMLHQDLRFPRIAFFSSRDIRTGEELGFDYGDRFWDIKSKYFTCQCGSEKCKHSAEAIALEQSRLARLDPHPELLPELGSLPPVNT
SMILES,"activity, negative = inhibition",Potency
CCO[C@H]1OC(C(=O)NCc2ccccc2)=C[C@@H](c2ccc(C(F)(F)F)cc2)[C@@H]1CCCO,inconclusive: -53.2% [inhibitor],
COc1ccc(S(=O)(=O)NCCS(=O)(=O)N2CCN(c3ccccc3)CC2)cc1C,inactive: 4.84%,
C=CCOc1cccc(CNc2ccc3[nH]c(=O)[nH]c3c2)c1,,active: 20 µM
COc1cccc(CN2CCNC(=O)C2CC(=O)NCCc2nc(C)c(C)s2)c1OC (stereo not given),inactive: 5.88% [at 12.7 µM],
Cc1nc2cnc(Oc3cccc(Cl)c3)nc2n(CCc2ccccc2)c1=O,inactive: -14.2% [at 12.7 µM],
CCCCc1nnc(NC(=O)CCS(=O)(=O)Cc2ccccc2)s1,,"inconclusive: 4.47 µM [inhibitor, partial curve, poor fit]"
O=C(O)Cc1sc(Nc2ccccc2)nc1-c1ccccc1,,"inconclusive: 35.5 µM [inhibitor, single point]"
CN(CCOc1ccc(C[C@H](Nc2ccccc2C(=O)c2ccccc2)C(=O)O)cc1)c1ccccn1,,"inconclusive: 39.8 µM [inhibitor, partial curve]"
Cc1ccc(N2CCN(S(=O)(=O)c3ccc4c(c3)oc(=O)n4C)CC2C)cc1 (stereo not given),inactive: -1.29% [at 102 µM],
COC(=O)c1ccccc1NC(=O)C1=C(C)C(=O)OC12CCCCCC2,inactive: 10.2%,
CN1C(=O)C(C)(C)c2cc(S(=O)(=O)N3CCCC(C(=O)NCc4ccccc4Cl)C3)ccc21 (stereo not given),inactive: 8.27% [at 102 µM],
CC(C)NCC(O)c1cc(O)cc(O)c1 (stereo not given),,inactive and active: 25.1 µM
CCC(CC)NC(=O)c1cccc([N+](=O)[O-])c1C,,"inconclusive: 1.12 µM [inhibitor, full curve]"
O=S(=O)(c1ccc(Cl)c(NC(=S)Nc2cccc(O)c2)c1)N1CCOCC1,,"inconclusive: 79.4 µM [inhibitor, single point]"
COc1ccc(NCC(=O)Nc2ccc(C#N)cc2)cc1Cl,,"inconclusive: 79.4 µM [inhibitor, single point]"
CC(=O)Oc1ccccc1N(C(C)=O)S(=O)(=O)c1ccc2ccccc2c1,inactive: -8.53% [at 102 µM],
Cc1ccc(S(=O)(=O)NCc2nc3ccccc3[nH]2)cc1,,"inconclusive: 89.1 µM [inhibitor, single point]"
CC(C)CN(C(=O)COc1ccc([N+](=O)[O-])cc1)c1c(N)n(CC(C)C)c(=O)[nH]c1=O,,"inconclusive: 15.8 µM [inhibitor, partial curve, poor fit]"
Cc1cc2cc(CNC(=S)NC3CCCCC3)ccc2[nH]1,,"inconclusive: 79.4 µM [inhibitor, single point]"
O=C(Cn1c(=O)sc2ccccc21)Nc1ccccc1C(=O)O,,"inconclusive: 89.1 µM [inhibitor, single point]"
CCOC(=O)c1cc(CC)sc1NC(=O)CN1CCN(C(=O)c2ccco2)CC1,,"inconclusive: 79.4 µM [inhibitor, single point]"
O=C(NCc1ccccc1Cl)c1cc(-c2ccccc2)n[nH]1,inactive: 3.21%,
O=c1cc(O)nc(SC23CC4CC(CC(C4)C2)C3)[nH]1,,active: 44.7 µM
CC1CCCC(NCC(=O)Nc2ccc(C(N)=O)cc2)C1C (stereo not given),,"inconclusive: 79.4 µM [inhibitor, partial curve, poor fit]"

SMILES,"activity, negative = inhibition",Potency
O=C(OCC(=O)N1CCCC1=O)c1ncc(Cl)c(Cl)c1Cl,,"inconclusive: 44.7 µM [inhibitor, partial curve, poor fit]"
CCN(CC)CCn1c(=S)[nH]c2ccccc2c1=O,,"inconclusive: 79.4 µM [inhibitor, single point]"
O=C(N/N=C/c1ccc(Sc2nc3ccccc3[nH]2)o1)c1ccncc1,,active: 44.7 µM
Cc1nnc(SCC(=O)N(C)C2CCCCC2)s1,inactive: -1.58% [at 102 µM],
COc1ccccc1CNC(=O)CCS(=O)(=O)Cc1ccc(C)cc1,,"inconclusive: 89.1 µM [inhibitor, single point]"
CCN(CC)S(=O)(=O)c1cccc(-c2nnc(SCC(=O)NC)n2N)c1,inactive: -4.03% [at 102 µM],
Cc1cc(C)cc(NC(=O)CSc2nccn2C2CCCC2)c1,,"inconclusive: 12.6 µM [inhibitor, partial curve]"
Oc1ccccc1/C=N/n1cnnc1,,active: 50.1 µM
Cc1ccc(NC(=O)C2=C(c3ccccc3)S(=O)(=O)CCS2(=O)=O)cc1,,active: 39.8 µM
Cc1ccc2nc(NC(=O)C3CCCN(S(=O)(=O)c4cccc5nsnc45)C3)sc2c1 (stereo not given),,active: 35.5 µM
COc1cccc(CNC(=O)Cc2c(C)c3cc4c(C)coc4cc3oc2=O)c1,,"inconclusive: 0.891 µM [inhibitor, full curve, poor fit]"
CCCn1nnc(NC(=S)NC(=O)Cc2ccccc2)n1,,active: 31.6 µM
COc1ccc(-c2cnn3c4c(c(C)nc23)CCN4C2CCCC2)cc1OC,inconclusive: -103% [inhibitor] [at 12.7 µM],
CC1=C(C(=O)OCCCBr)C(c2ccc3c(c2)OCO3)NC(=O)N1 (stereo not given),,active: 50.1 µM
COc1cc(NS(=O)(=O)c2ccc(NC(=O)COc3ccc(Cl)cc3Cl)cc2)nc(OC)n1,,"inconclusive: 7.08 µM [inhibitor, partial curve]"
O=C(Cn1[nH]c(=O)c2ccccc2c1=O)Nc1cccc(S(=O)(=O)N2CCCCCC2)c1,,"inconclusive: 79.4 µM [inhibitor, single point]"
COc1ccc(CN(C(=O)Nc2cc(C)ccc2C)C2CCN(C(C)=O)CC2)cc1,inactive: 10.9%,
O=S(=O)(c1ccc(Cl)cc1)N1CCSC1c1ccco1 (stereo not given),inactive: 9.68%,
COc1ccc2c(c1)c(=O)c(S(=O)(=O)c1ccc(F)cc1)cn2CC(=O)Nc1ccc(C)cc1C,inactive: -0.892%,
CCOc1ccc(C(=O)C[n+]2cccc3cc(C)ccc32)cc1,,"inconclusive: 89.1 µM [inhibitor, single point]"
O=C(O)CN(CCO)CCN(CC(=O)O)CC(=O)O,inactive: 17.3% [at 102 µM],
Cc1ccc(CNCc2ccc3c(c2)n(C)c(=O)n3C)cc1,inactive: 0.392%,
N#C/C(=N\Nc1ccc(Cl)cc1)C(=O)c1ccccc1,,"inconclusive: 3.16 µM [inhibitor, partial curve, poor fit]"
Cc1ccc(C(=O)N2CCC(Cc3ccccc3)CC2)cc1[N+](=O)[O-],,"inconclusive: 79.4 µM [inhibitor, partial curve, poor fit]"

SMILES,"activity, negative = inhibition",Potency
CCOc1ccccc1CN1CCNC(=O)C1CC(=O)NCc1cc(C)n(C)n1 (stereo not given),,"inconclusive: 50.1 µM [inhibitor, partial curve, poor fit]"
O=C(CN1C(=O)C2CC=CCC2C1=O)Nc1ccccc1N1CCCC1 (stereo not given),,active: 50.1 µM
O=C(COc1ccccc1)NC(NC(=S)Nc1ccccc1O)C(Cl)(Cl)Cl (stereo not given),,"inconclusive: 14.1 µM [inhibitor, partial curve]"
CCOc1ccc2nc(N(Cc3cccnc3)C(=O)c3ccco3)sc2c1,inactive: -0.639%,
CCCCC(=Nc1ccccc1OC)C1=C(O)CC(c2ccccc2)CC1=O (stereo not given),,"inconclusive: 25.1 µM [inhibitor, partial curve, poor fit]"
CCN1CCN(c2nc(Nc3ccccc3)nc(N)c2[N+](=O)[O-])CC1,,"inconclusive: 1.26 µM [inhibitor, full curve, poor fit]"
COc1ccc(CCN2C(=O)C3C4CC(C5C(C(=O)O)=NOC45)C3C2=O)cc1OC (stereo not given),,"inconclusive: 56.2 µM [inhibitor, partial curve, poor fit]"
Cc1nn(-c2ccccc2)c2nc(-c3ccco3)cc(C(=O)O)c12,,active: 20 µM
CCc1ccc(C(CNC(=O)c2ccc3c(=O)n(-c4ccccc4F)c(=S)[nH]c3c2)N(C)C)cc1 (stereo not given),,"inconclusive: 50.1 µM [inhibitor, partial curve, poor fit]"
COc1ccc(NC(=O)CC2Sc3ncnn3C2=O)cc1 (stereo not given),,active: 1.41 µM
CCOC(=O)O[C@]1(C(=O)COC(=O)CC)CC[C@@H]2[C@@H]3CCC4=CC(=O)C=C[C@@]4(C)[C@H]3[C@H](O)C[C@]21C,inactive: 22.6% [at 21.5 µM],
CN1C(=O)c2ccccc2N(C)C1c1ccc(F)cc1 (stereo not given),,"inconclusive: 3.16 µM [inhibitor, single point]"
C[C@@H](O)[C@@H]1NC(=O)c2cc([N+](=O)[O-])cc(I)c2NCC[C@@H](C(N)=O)NC(=O)CNC1=O,,active: 50.1 µM
COc1cc2c(cc1OC)-c1cc(N3CCc4ccccc43)nc(=O)n1CC2,,"inconclusive: 89.1 µM [inhibitor, single point]"
CCOC(=O)c1nnsc1NC(=O)Nc1ccc(OC)cc1,,active: 39.8 µM
O=C1c2ccccc2C(Nc2ccccc2F)N1c1cccnc1 (stereo not given),,"inconclusive: 89.1 µM [inhibitor, single point]"
Cc1cc(Cl)ccc1NC(=O)CCS(=O)(=O)c1ccc2c(c1)CC(C)N2C(=O)C1CC1 (stereo not given),,"inconclusive: 8.91 µM [inhibitor, single point]"
CC(C)(C)C(=O)Nc1ccc(C(=O)COC(=O)C2=COCCO2)cc1,,"inconclusive: 89.1 µM [inhibitor, partial curve, poor fit]"
COc1ccc(OC)c(C(=O)NC(CC(N)=O)c2ccc(N3CCN(c4ccccn4)CC3)c([N+](=O)[O-])c2)c1 (stereo not given),,active: 79.4 µM
CC(C)(C)NC(=S)Nc1ccc(Nc2ccccc2)cc1,,active: 11.2 µM
COc1ccc(NC(=O)c2ccc(CN3CCN(c4ccccc4)CC3)cc2)cc1,,"inconclusive: 1.26 µM [inhibitor, partial curve, poor fit]"
CCn1c(C(=O)N2CCc3ccccc3C2)cc2oc3ccccc3c21,,"inconclusive: 12.6 µM [inhibitor, partial curve, poor fit]"
